PubChem BioAssay AID504845 (National Center for Advancing Translational Sciences (NCATS), 2011)
Screen size: about 390,000 compounds; about 150 (0.038%) were called active. Inconclusive means that the source gave no clear call. Such entries were picked first, then a sample of the others. Calls follow the shape of the dose curve; as a rule, active = well fitted inhibition curve with a large enough effect; inconclusive = small, poorly fitted or top-dose-only effect; inactive = no such curve, though single readings can be large or run the other way. Where the call is inconclusive, the potency comes from a doubtful curve fit.

molecular target: Regulator of G-protein signaling 4 (Homo sapiens) (UniProt P49798); test: Inhibitors of Regulator of G Protein Signaling (RGS) 4: qHTS; details: Transcreener GDP fluorescence polarization, RGS4-accelerated GTP hydrolysis; series mostly up to 114 µM; also: nearly all actives have a fitted effect of over 75% in size
Procedure, shortened: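 MLSMR compounds (23 nl, pin-transferred) preincubated 10 min at room temperature with a 500nM (2x) first reagent, then RGS4 at 900nM (2x) plus Transcreener GDP mix added; fluorescence polarization (620/688 nm) read before and after 90 min at 30 °C.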
% is scaled to controls: 0 for no effect and ±100 for the full control effect; potency is read from the fitted curve at half-maximal effect; tags tell the direction and shape of the fitted curve.

Sequence of UniProt P49798 (P49798 whole entry, looked up): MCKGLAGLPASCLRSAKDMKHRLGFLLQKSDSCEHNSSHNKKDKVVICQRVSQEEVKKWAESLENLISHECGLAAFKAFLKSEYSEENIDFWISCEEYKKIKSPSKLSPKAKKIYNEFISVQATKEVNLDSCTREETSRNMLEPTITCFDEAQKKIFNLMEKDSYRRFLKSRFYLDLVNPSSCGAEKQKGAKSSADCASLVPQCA

SMILES | Potency | activity change, negative = inhibition
C[C@H]1C[C@H]2[C@@H]3CCC4=CC(=O)C=C[C@]4(C)[C@@]3(F)[C@@H](O)C[C@]2(C)[C@@]1(O)C(=O)CO | inactive | 
CC(=O)Nc1ccc(S(=O)(=O)NCCc2csc3nc(-c4ccc(Cl)cc4)nn23)cc1 | inactive | 
CCOc1ccc(NC(=S)NN(C)C(=S)Nc2ccc(OCC)cc2)cc1 | inconclusive: 100 µM [inhibitor, single point] | 
COc1ccc(C)cc1NC(=O)CSc1nc(=O)n(Cc2ccco2)c2c1CCC2 | inconclusive: 89.1 µM [inhibitor, single point] | 
Cc1cc(=O)oc2c(C)c(OCC(=O)N3CCN(c4cccc(Cl)c4)CC3)ccc12 | inactive | 
O=C(NCC1CCCO1)c1cc2n(n1)C(C(F)(F)F)CC(c1ccc(F)cc1)N2 (centres undefined) | inactive | 
NCCCNc1ccc(Br)cn1 | inactive | 
CCc1c(C)nc(N2CCN(c3ccc(Cl)cc3)CC2)[nH]c1=O | inconclusive: 79.4 µM [inhibitor, partial curve, poor fit] | 
Cc1cccc(N(C)S(=O)(=O)c2nnc(NC(=O)C(C)Oc3ccccc3)s2)c1 (centres undefined) | inconclusive: 79.4 µM [inhibitor, single point] | 
CC(C)n1cc(/C=N/NC(=O)COc2cccc3cccnc23)c2ccccc21 | inconclusive: 79.4 µM [inhibitor, partial curve, poor fit] | 
COc1ccc(/C=C2/SC(c3ccc(C)cc3)=NC2=O)cc1OC | inconclusive: 100 µM [inhibitor, partial curve, poor fit] | 
N#C/C(=N\Nc1c(Cl)cccc1Cl)C(=O)NN |  | inactive: -11.1% [at 11.4 µM]
O=C(NNC(=O)c1cccc(Br)c1)Nc1ccc(Cl)cc1 | inconclusive: 17.8 µM [inhibitor, full curve, poor fit] | 
COc1cccc(N2CC(C(=O)Nc3nnc(SCc4cccnc4)s3)CC2=O)c1 (centres undefined) | inconclusive: 79.4 µM [inhibitor, single point] | 
CC(=O)c1ccc(NC(=O)CNCC(c2ccccc2)N(C)C)cc1 (centres undefined) | inconclusive: 79.4 µM [inhibitor, partial curve, poor fit] | 
O=C(O)/C=C\C(=O)NNC(=O)c1cc(-c2ccccc2)n[nH]1 | inactive | 
Cc1c(CNC2CCCCCC2)c(C(=O)O)c(C)n1Cc1cccc(Cl)c1 | inactive | 
CC(=O)Nc1ccc(NC(=O)C(C)OC(=O)c2ccc(OCc3c(C)noc3C)cc2)cc1 (centres undefined) | inconclusive: 56.2 µM [inhibitor, partial curve, poor fit] | 
CCOc1ccc(N/C(N)=N/c2nc(CSc3nnc(C)s3)cc(=O)[nH]2)cc1 | inactive | 
Cc1ccccc1S(=O)Cc1ccc(C(=O)NCc2ccccc2Cl)o1 (centres undefined) | inactive | 
Cc1ccc(CSC2=NC(C)(C)Nc3ccccc32)c(C)c1 | inactive | 
CC(=O)N1CCN(c2csc3ccc(Cl)cc3c2=O)CC1 | inconclusive: 50.1 µM [inhibitor, partial curve, poor fit] | 
S=C(c1cn(CCOc2cccc3ccccc23)c2ccccc12)N1CCCC1 | inactive | 

SMILES | Potency | activity change, negative = inhibition
COc1ccc(OC)c(CN2CCC(CO)(CCOc3ccccc3)CC2)c1 | inactive | 
O=C(/C=C/c1ccc([N+](=O)[O-])cc1)NC1CC2CCC1C2 (centres undefined) | inconclusive: 25.1 µM [inhibitor, full curve, poor fit] | 
Cc1cc(C)c(S(=O)(=O)c2ccccc2)c(OC(=O)c2ccc(Cl)cc2Cl)n1 | inconclusive: 79.4 µM [inhibitor, single point] | 
CCc1cccc(C)c1Nc1nn2c(=O)c3ccccc3nc2s1 | inconclusive: 44.7 µM [inhibitor, partial curve, poor fit] | 
CSCCC(NC(=O)c1ccccc1Cl)C(=O)Nc1cccc(S(=O)(=O)N2CCCC2)c1 (centres undefined) | inconclusive: 89.1 µM [inhibitor, single point] | 
CCN1/C(=C/C=C/c2oc3ccc(-c4ccccc4)cc3[n+]2CC)Oc2ccc(-c3ccccc3)cc21 | inconclusive: 35.5 µM [inhibitor, partial curve, poor fit] | 
COC(=O)Nc1sc2c(c1C(=O)N1CCOCC1)CCC(C)C2 (centres undefined) | inconclusive: 44.7 µM [inhibitor, partial curve, poor fit] | 
CCN(CC)c1ccc(NC(=S)NC(=O)c2ccco2)cc1 | inconclusive: 28.2 µM [inhibitor, full curve, poor fit] | 
CN(C(=O)CSc1nc(-c2ccccc2)cn1N)C(c1ccccc1)c1ccccc1 | inconclusive: 28.2 µM [inhibitor, full curve, poor fit] | 
COc1ccccc1N(C)S(=O)(=O)c1ccc(C(=O)NC2CCCCC2)cc1 | inconclusive: 89.1 µM [inhibitor, single point] | 
CC(=O)C(Cl)C(=O)Nc1ccccc1 (centres undefined) | inconclusive: 89.1 µM [inhibitor, partial curve, poor fit] | 
CNCc1ccccc1OCC(=O)Nc1ccccc1 | inactive | 
CCCCN(C)CCCNC(=O)c1cn(C)c2ccc(S(=O)(=O)N(C)C3CCCCC3)cc2c1=O | inconclusive: 50.1 µM [inhibitor, partial curve, poor fit] | 
CCOc1ccc(NC(=O)Cc2ccccc2)c([N+](=O)[O-])c1 | inconclusive: 89.1 µM [inhibitor, partial curve, poor fit] | 
CCOc1ccc(NC(=S)NC(=O)C2CCCC2)cc1 | inconclusive: 79.4 µM [inhibitor, partial curve, poor fit] | 
O=S(=O)(Nc1ccc2c(c1)nc1n2CCN(Cc2ccccc2)C1)c1ccccc1 | inactive | 
CC1(C)CC(NNCCC#N)=CC(=[N+]2CCCC2)C1 | inconclusive: 28.2 µM [inhibitor, full curve, poor fit] | 
O=C(CCC(=O)N(CC(=O)NC1CCCCC1)CC1CCCO1)Nc1nccs1 (centres undefined) | inconclusive: 70.8 µM [inhibitor, partial curve, poor fit] | 
Cc1[nH]c(=O)c(C(=O)/C=C/c2ccccc2F)c2c1CCCC2 | inactive | 
CC(C)Cn1c(SCC(=O)N2CCCc3ccccc32)nc2ccccc2c1=O | inactive | 
Cc1cc(N2C(=O)C(O)=C(C(=O)c3cc4ccccc4o3)C2c2cccs2)no1 (centres undefined) | inconclusive: 70.8 µM [inhibitor, partial curve, poor fit] | 
O=C(O)C1Cc2[nH]cnc2C(c2cccc([N+](=O)[O-])c2)N1 (centres undefined) | inactive | 
O=[N+]([O-])c1ccccc1/C=N/n1c(COc2ccccc2)n[nH]c1=S | inconclusive: 79.4 µM [inhibitor, partial curve, poor fit] | 

SMILES | Potency | activity change, negative = inhibition
CCN(C)c1ccc(/C=N\n2nnnc2N)cc1 | inactive | 
Cn1c(NCc2c(O)ccc3ccccc23)nc2ccccc21 | inconclusive: 79.4 µM [inhibitor, single point] | 
O=C(Cc1ccccc1)NCC(=O)OCC(=O)c1cccc2ccccc12 | inactive | 
O=C(c1nc2ccccn2c1CNCC1OCCc2ccccc21)N1CCOCC1 (centres undefined) | inactive | 
O=C(CN1CCN(C(c2ccccc2)c2ccccc2)CC1)N1N=CCC1c1ccccc1 (centres undefined) | inactive | 
O=C(CSc1nnc2scc(-c3ccccc3)n12)Nc1nsc(-c2ccccc2)n1 | inactive | 
Cc1c(/C=N/NC(=O)c2ccccc2O)c2ccccn2c1C(=O)c1ccc(F)cc1 | inactive | 
Cc1cc(NS(=O)(=O)c2ccc(NC(=S)NC(=O)c3ccc(C(C)(C)C)cc3)cc2)no1 | inconclusive: 79.4 µM [inhibitor, partial curve, poor fit] | 
Cc1nnc(NC(=O)CCCOc2ccccc2)s1 | inconclusive: 79.4 µM [inhibitor, partial curve, poor fit] | 
CCOc1ccc2c(c1)c(=O)c(S(=O)(=O)c1ccc(Cl)cc1)cn2Cc1ccccc1C | inactive | 
O=C(Cc1cccc(C(F)(F)F)c1)Nc1cc(S(=O)(=O)N2CCOCC2)ccc1N1CCCC1 | inactive | 
CCCC(=O)c1ccc(N2CCCCCC2)c(F)c1 | inactive | 
Cc1ccc(C(C[N+](=O)[O-])Sc2ccc(N)cc2)cc1 (centres undefined) | inconclusive: 35.5 µM [inhibitor, partial curve, poor fit] | 
CC[N+]1(C)C2CCC1CC(OC(=O)[C@H]1CCC(C(=O)OC3CC4CCC(C3)[N+]4(C)CC)(c3ccccc3)c3ccccc31)C2 (some centres undefined) | inconclusive: 8.44 µM [inhibitor, partial curve, poor fit] | 
COC(=O)c1cccc(S(=O)(=O)N2CCC(C)CC2)c1 | inactive | 
Cc1ccc(NC(=O)CN2C(=O)S/C(=C\c3ccc(-c4cccc(C(=O)O)c4C)o3)C2=O)cc1C | inconclusive: 17.8 µM [inhibitor, full curve, poor fit] | 
CCCCN(CCCC)C(=O)c1cc(Cl)ccc1[N+](=O)[O-] | inactive | 
COc1cccc(CCNC(=O)c2ccc(C#N)cc2)c1 | inactive | 
CCOc1cccc(C(=O)NC(=S)Nc2ccc(Cl)cc2C(=O)O)c1 | inconclusive: 44.7 µM [inhibitor, partial curve, poor fit] | 
CCc1ccc(-c2cc(C(=O)O)c3ccccc3n2)s1 | inconclusive: 89.1 µM [inhibitor, single point] | 
O=C(NCc1ccco1)c1cccnc1-c1nc2ccccc2s1 | inconclusive: 100 µM [inhibitor, partial curve, poor fit] | 
CCCN(CC(=O)Nc1ccccc1OC)C(=O)CCC(=O)c1ccc(Cl)s1 | inactive | 
O=C(O)c1cc(-c2ccc(/C=N/Nc3ccc([N+](=O)[O-])cn3)o2)ccc1Cl | inconclusive: 79.4 µM [inhibitor, partial curve, poor fit] | 
